Measurements as given in publication PMC4336329 (PLoS ONE, 2015).
The campaign covered roughly 310,000 compounds. About 2,200 (0.71%) showed an effect of 50% or more. The effect is printed as a negative number. The list shows a part of the results.

molecular target: human ether-à-go-go-related gene (hERG) potassium channel (human, UniProt Q12809); experiment: primary screen, population patch clamp on CHO cells stably expressing hERG
Sequence (Q12809 whole entry, looked up): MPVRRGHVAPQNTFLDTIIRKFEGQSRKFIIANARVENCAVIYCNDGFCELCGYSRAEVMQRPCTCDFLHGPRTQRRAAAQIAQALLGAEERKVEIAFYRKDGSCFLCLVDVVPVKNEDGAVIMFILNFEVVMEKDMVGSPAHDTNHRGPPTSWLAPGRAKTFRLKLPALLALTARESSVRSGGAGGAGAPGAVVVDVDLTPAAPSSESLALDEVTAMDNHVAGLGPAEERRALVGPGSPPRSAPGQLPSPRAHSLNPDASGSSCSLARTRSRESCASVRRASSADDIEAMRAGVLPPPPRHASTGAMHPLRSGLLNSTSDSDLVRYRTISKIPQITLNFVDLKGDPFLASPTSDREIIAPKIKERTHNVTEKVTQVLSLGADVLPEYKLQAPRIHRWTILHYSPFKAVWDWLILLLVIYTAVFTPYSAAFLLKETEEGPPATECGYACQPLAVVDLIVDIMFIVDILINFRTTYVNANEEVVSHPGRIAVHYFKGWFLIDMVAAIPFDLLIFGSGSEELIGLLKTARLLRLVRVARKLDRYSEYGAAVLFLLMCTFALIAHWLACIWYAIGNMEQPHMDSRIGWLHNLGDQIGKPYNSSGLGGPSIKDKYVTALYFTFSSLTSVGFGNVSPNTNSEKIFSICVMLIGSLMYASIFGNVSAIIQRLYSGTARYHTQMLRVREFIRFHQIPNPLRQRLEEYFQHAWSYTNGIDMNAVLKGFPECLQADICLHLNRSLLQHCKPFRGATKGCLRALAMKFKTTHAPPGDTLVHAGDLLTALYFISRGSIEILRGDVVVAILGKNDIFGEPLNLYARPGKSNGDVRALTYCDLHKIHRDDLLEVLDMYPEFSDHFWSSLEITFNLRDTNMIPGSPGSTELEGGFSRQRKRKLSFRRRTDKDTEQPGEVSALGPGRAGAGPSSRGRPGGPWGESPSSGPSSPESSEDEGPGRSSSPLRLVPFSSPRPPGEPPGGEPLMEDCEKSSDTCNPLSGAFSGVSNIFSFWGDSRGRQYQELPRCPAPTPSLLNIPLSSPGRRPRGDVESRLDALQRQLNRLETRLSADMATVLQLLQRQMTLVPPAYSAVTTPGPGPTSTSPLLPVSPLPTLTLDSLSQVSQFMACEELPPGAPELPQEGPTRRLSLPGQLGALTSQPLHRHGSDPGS

Going from `O=C(OCC#CCSc1nc2ccccc2o1)c1ccco1` to `O=C(NCCc1cccc(Cl)c1)c1cc2ccccc2oc1=O`, the “hERG current change (%, negative = inhibition) at 1uM” value rises from 4.36% to 12.5%.

First: COC(C(=O)N/N=C(\C)c1ccc(C(C)(C)C)cc1)c1ccccc1 (centres unmarked)
Second: CC/C(=N\NC(=S)Nc1cccc(C)c1)c1ccccc1
The “hERG current change (%, negative = inhibition) at 1uM” value of the first is higher: 12% for the first, 11.7% for the second.

First: COc1ccc(CCC(C)Nc2ccccc2F)cc1 (centres unmarked)
Second: COc1ccc(Cc2nnc(NC(=O)c3ccccc3F)s2)cc1
The “hERG current change (%, negative = inhibition) at 1uM” value of the first is lower: 9.36% for the first, 18.9% for the second.

Compared with `Cc1cc(O)c(C(C)C)cc1N=Cc1ccccc1O`, `Cc1ccccc1Cn1c(C(C)O)nc2ccccc21` (centres unmarked) is higher in “hERG current change (%, negative = inhibition) at 1uM” value: 8.6% for the first, 11.6% for the second.

Compared with `CN1CCN(CCOc2ccc(-c3ccccc3)cc2)CC1.Cl`, `O=S(=O)(c1ccccc1)N1CCN(CCc2ccccc2)CC1` is higher in “hERG current change (%, negative = inhibition) at 1uM” value: 3.27% for the first, 9.11% for the second.

Going from `CC1=C(C(=O)Nc2ccccc2F)C(c2cccs2)NC(=S)N1` (centres unmarked) to `O=C(Nc1cccc2ccccc12)c1cnccn1`, the “hERG current change (%, negative = inhibition) at 1uM” value rises from -0.728% to 4.55%.

Compared with `O=C(Nc1c2c(nn1-c1ccc(F)cc1)CS(=O)C2)c1ccc(Br)o1` (centres unmarked), `O=C(CNC(=O)c1ccc(Br)o1)Nc1ccncc1` is lower in “hERG current change (%, negative = inhibition) at 1uM” value: 10.4% for the first, 1.96% for the second.

First: COc1ccc(-c2nn3c(COc4ccccc4)nnc3s2)cc1OC
Second: COc1ccc(CCN2CC3=C(C2=O)C(c2ccccc2)NC(=O)N3C)cc1OC (centres unmarked)
The “hERG current change (%, negative = inhibition) at 1uM” value of the first is higher: 9.72% for the first, -4.27% for the second.

Compared with `COc1ccc(C)cc1NC(=O)CN1C(=O)COc2ccc(C)cc21`, `O=C(CN1C(=O)CCSc2ccc(S(=O)(=O)N3CCOCC3)cc21)Nc1cccc(F)c1` is lower in “hERG current change (%, negative = inhibition) at 1uM” value: 19.8% for the first, 7.76% for the second.

First: Cn1c(SCc2cccc3ccccc23)nnc1-c1ccco1
Second: O=c1[nH]c(SCc2n[nH]c(=S)n2-c2ccccc2)nc2ccccc12
The “hERG current change (%, negative = inhibition) at 1uM” value of the first is lower: 5.48% for the first, 13.3% for the second.

Going from `C=CCn1c(=O)c2ccccc2n2c(SCC(=O)N3CCCc4ccccc43)nnc12` to `COc1cccc(CN2CCN(C(=O)c3cccc4ccccc34)CC2)c1.O=C(O)C(=O)O`, the “hERG current change (%, negative = inhibition) at 1uM” value rises from 4.03% to 5.1%.

First: CCCCC(c1nnnn1CCOC)N1CCN(C)CC1.Cl (centres unmarked)
Second: CCOC(=O)C(c1ccccc1)N1CCN(c2ccc(OC)cc2)CC1 (centres unmarked)
The “hERG current change (%, negative = inhibition) at 1uM” value of the first is lower: 7.55% for the first, 11.7% for the second.

Going from `NC(=O)C(c1ccc(Cl)cc1)c1ccc(Sc2ccccc2)nn1` (centres unmarked) to `COC(=O)Nc1nc2ccc(Sc3ccccc3)cc2[nH]1`, the “hERG current change (%, negative = inhibition) at 1uM” value rises from 4.5% to 14.4%.

Going from `COc1cc(C(C2C(=O)CC(C)(C)CC2=O)C2C(=O)CC(C)(C)CC2=O)ccc1O` to `CCOC(=O)C1CCCN(C2=NC(=O)/C(=C/c3ccc(O)c(OC)c3)S2)C1` (centres unmarked), the “hERG current change (%, negative = inhibition) at 1uM” value falls from 8.07% to -10.8%.

Going from `CCOC(=O)c1c(CN(C)C)n(-c2ccccc2)c2cc(Br)c(O)cc12.Cl` to `CCOC(=O)c1c(C(C)(C)C)oc2ccc(OCC#N)cc12`, the “hERG current change (%, negative = inhibition) at 1uM” value rises from -37.2% to 7.28%.

Going from `O=C1c2cccc3cccc(c23)C(=O)N1c1nccs1` to `Nc1cccc2c1C(=O)N(C(=O)/C=C/c1cccc(F)c1)C2=O`, the “hERG current change (%, negative = inhibition) at 1uM” value rises from 0.0267% to 22.7%.

Going from `CC(C)(C)OC(=O)NCc1ccc(CNC(=O)c2[nH]cnc2C(=O)N[C@@H](Cc2ccccc2)C(=O)OCc2ccccc2)cc1` to `C/C(=N\NC(=O)c1ccccc1OCc1ccc(F)cc1)c1ccccn1`, the “hERG current change (%, negative = inhibition) at 1uM” value rises from -0.608% to 11.3%.

Going from `Cn1nc(C(F)(F)F)c(C#N)c1N1CCN(c2ccccc2)CC1` to `Cc1cccn2c(=O)c(C=C(C#N)C#N)c(N3CCN(c4cccc(Cl)c4)CC3)nc12`, the “hERG current change (%, negative = inhibition) at 1uM” value rises from -9.29% to 8.05%.

First: COc1ccc(C(=O)Cn2nc(CNc3ccc(Br)cc3)[n+]3c2CCCCC3)cc1.[Br-]
Second: COc1cccc(C(=O)NCCSc2ccc(Br)cc2)c1
The “hERG current change (%, negative = inhibition) at 1uM” value of the first is lower: 12.1% for the first, 12.8% for the second.

Compared with `CC(C)c1ccc(NC(=O)CCNS(=O)(=O)c2ccc3[nH]c(=O)oc3c2)cc1`, `Cc1ccc(S(=O)(=O)CCC(=O)NCCc2ccccc2)cc1` is lower in “hERG current change (%, negative = inhibition) at 1uM” value: 16.5% for the first, 12.2% for the second.

Compared with `O=C(O)c1cccc(NC(=S)NC(=O)c2ccc(-c3ccc(Cl)cc3)o2)c1`, `O=C(O)/C(=C\C(=O)c1ccccc1)Nc1ccccc1` is lower in “hERG current change (%, negative = inhibition) at 1uM” value: 14.9% for the first, 7.04% for the second.

First: O=C(COC(=O)c1cc([N+](=O)[O-])ccc1N1CCOCC1)NC1CCCCC1
Second: CC1CCN(CC(=O)Nc2ccc(S(=O)(=O)N3CCCCC3)cc2)CC1
The “hERG current change (%, negative = inhibition) at 1uM” value of the first is lower: -6.8% for the first, -1.04% for the second.

First: CC(C(=O)NCC1(c2ccccc2)CCOCC1)N1CCOCC1.Cl (centres unmarked)
Second: Nc1c(NCCN2CCOCC2)c2ccccc2oc1=O
The “hERG current change (%, negative = inhibition) at 1uM” value of the first is higher: 25.4% for the first, 10.3% for the second.

Compared with `O=C(NCCCc1ccccc1)c1ccncc1`, `O=C(NC(=S)Nc1ncccn1)c1ccccc1Cl` is higher in “hERG current change (%, negative = inhibition) at 1uM” value: -4.47% for the first, 12.7% for the second.

Compared with `CCn1c(SCC(=O)NCc2ccco2)nc2c(c1=O)SC(C)C2` (centres unmarked), `CC(C)CNC(=O)CSc1nnc(-c2cccc(S(=O)(=O)N3CCCCC3)c2)o1` is higher in “hERG current change (%, negative = inhibition) at 1uM” value: 5.05% for the first, 9.54% for the second.

`CC(OC(=O)CNC(=O)c1sc2ccccc2c1Cl)C(=O)NC1(C#N)CCCCC1` (centres unmarked) and `CC(=O)c1ccc(N(CC(=O)NC2CCCC2)C(=O)CNC(=O)c2cccs2)cc1` are the same in “hERG current change (%, negative = inhibition) at 1uM” value: 12.2% for the first, 12.2% for the second.

First: O=C(NCCc1c[nH]c2ccccc12)C(F)(F)F
Second: CC1CN(C(=S)Nc2ccccc2C(F)(F)F)CC(C)O1 (centres unmarked)
The “hERG current change (%, negative = inhibition) at 1uM” value of the first is higher: 13.6% for the first, -6.65% for the second.

Compared with `CC(=O)[C@@H]1[C@@H]2C(=O)N(C3CCCCC3)C(=O)[C@@H]2C2c3ccccc3C=CN21` (some centres unmarked), `O=C1Oc2ccccc2C2(O)C3CCCCCC3C12` (centres unmarked) is lower in “hERG current change (%, negative = inhibition) at 1uM” value: 10.4% for the first, -5.84% for the second.

Going from `O=C(CSc1n[nH]c(-c2cccs2)n1)NC1CCS(=O)(=O)C1` (centres unmarked) to `O=C(CSc1ccc(Br)cc1)NC1CCS(=O)(=O)C1` (centres unmarked), the “hERG current change (%, negative = inhibition) at 1uM” value falls from 13.1% to 11%.

Going from `Cc1sc(-c2c(C#N)c(N)nc3c2CCCCCC3)cc1[N+](=O)[O-]` to `NC(=O)c1c(NC(=O)Cn2cc([N+](=O)[O-])cn2)sc2c1CCCC2`, the “hERG current change (%, negative = inhibition) at 1uM” value rises from 1.92% to 2.68%.

First: Nc1cccc(C(=O)OCC(=O)Nc2cccc3c2C(=O)c2ccccc2C3=O)c1
Second: CC(=O)C(C(C)=O)c1cc(NS(=O)(=O)c2ccccc2)ccc1NS(=O)(=O)c1ccccc1
The “hERG current change (%, negative = inhibition) at 1uM” value of the first is higher: 14.1% for the first, 13.1% for the second.

First: C=CCN=C(NC#N)SCc1ccccc1
Second: Cc1ccccc1OCC(=O)N/N=C/c1cccn1C
The “hERG current change (%, negative = inhibition) at 1uM” value of the first is higher: 18.3% for the first, 14.6% for the second.

First: CCOC(=O)C1=C(C)NC(=O)NC1c1ccc(Br)s1 (centres unmarked)
Second: CCOC(=O)C1CCCN(CCC(=O)Nc2ccc(Br)cc2)C1.Cl (centres unmarked)
The “hERG current change (%, negative = inhibition) at 1uM” value of the first is lower: 3.47% for the first, 5.56% for the second.

Going from `COc1cc(C(=O)CSc2nncn2C)cc(OC)c1OC` to `COc1ccc(CN(C)C(=O)CNC(=O)Cc2cccc3ccccc23)c(OC)c1OC`, the “hERG current change (%, negative = inhibition) at 1uM” value rises from 3.79% to 8.2%.

First: O=C(CNCCC1=CCCCC1)Nc1ccc(N2CCCCCC2)cc1.O=C(O)C(=O)O
Second: O=C(Nc1ccc(N2CCCC2)cc1)c1cc2ccccc2o1
The “hERG current change (%, negative = inhibition) at 1uM” value of the first is higher: 16.5% for the first, 12.4% for the second.

Going from `CCN(CC)c1nc(N)c2c(N)nc3c(c2c1C#N)CC(c1ccccc1)O3` (centres unmarked) to `CCN1C=C(Cc2ccc(F)cc2)C2=C(C1)C(c1ccc(F)cc1)C(C#N)=C(N)O2` (centres unmarked), the “hERG current change (%, negative = inhibition) at 1uM” value falls from 11.5% to 6.93%.

Compared with `CCOc1ccc(Br)cc1S(=O)(=O)NCCN(C)C`, `COc1ccc(Cl)cc1S(=O)(=O)NC(C)C(=O)NCc1ccccn1` (centres unmarked) is lower in “hERG current change (%, negative = inhibition) at 1uM” value: 9.99% for the first, 9.19% for the second.

Compared with `COc1ccc(-n2c(-c3ccccc3)cc3c2CCCC3=O)cc1`, `S=c1[nH]nc(Cc2sc(-c3ccccc3)nc2-c2ccccc2)o1` is higher in “hERG current change (%, negative = inhibition) at 1uM” value: 2.11% for the first, 11.5% for the second.

Going from `C[C@H](N)c1nnc(SCc2c(Cl)cccc2Cl)o1.Cl` to `O=C(Cc1cccs1)N1CCCC(c2nc3c(nnn3Cc3cccc(Cl)c3)c(=O)[nH]2)C1` (centres unmarked), the “hERG current change (%, negative = inhibition) at 1uM” value falls from 5.41% to 3.24%.

First: CON/C=N/C(=S)Nc1ncc(C(F)(F)F)cc1Cl
Second: O=C(/C=C/Nc1ccc(Cc2ccc(N/C=C/C(=O)C(F)(F)F)cc2)cc1)C(F)(F)F
The “hERG current change (%, negative = inhibition) at 1uM” value of the first is higher: 13.9% for the first, 4.84% for the second.

First: O=S(=O)(Nc1ccc2c(c1)OCO2)c1cccs1
Second: O=S(=O)(Nc1ncccn1)c1ccc(NC(=S)NCc2cccnc2)cc1
The “hERG current change (%, negative = inhibition) at 1uM” value of the first is higher: 11.6% for the first, 11.3% for the second.

Compared with `COC(=O)c1ccc(NC(=O)C2CCN(C(=O)Nc3ccccc3)CC2)cc1`, `COc1ccccc1N1CCN(C(=O)c2ccc3[nH]c4c(c3c2)CC(C)CC4)CC1` (centres unmarked) is higher in “hERG current change (%, negative = inhibition) at 1uM” value: 1.94% for the first, 14.1% for the second.

Compared with `Cc1cc(C)n(-c2nc(NCC3CCCO3)c3c4c(sc3n2)COC(C)(C)C4)n1` (centres unmarked), `COc1ccc(OC)c(S(=O)(=O)N2CCCC(C(=O)NCc3ccccn3)C2)c1` (centres unmarked) is higher in “hERG current change (%, negative = inhibition) at 1uM” value: 2.09% for the first, 9.02% for the second.

Compared with `O=C(O)c1nc(N2CCCC2)ncc1Cl`, `Cc1ccc2nc(NC(=O)CSCC(=O)OCC(=O)c3ccc(Br)cc3)sc2c1` is lower in “hERG current change (%, negative = inhibition) at 1uM” value: 17.3% for the first, 13.7% for the second.

`CN(C)N=Nc1nc2c(c(=O)n(C)c(=O)n2C)n1C` was tested, and the “hERG current change (%, negative = inhibition) at 1uM” value was 17.8%.
